Source: the supplement of paper PMC11417369
± gives the standard deviation of the averaged measurements. The list shows a part of the results.

Each sequence was assayed on PfAP2-I AP2 domain 3 (GST-tagged) (assay: gcPBM binding intensity (ln(normalized median fluorescence intensity)); higher = stronger DNA binding).
How it was run: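 Each value is the highest Masliner-normalised natural-log median intensity across replicate spots of either orientation of a probe. The probes were primer-extended double-stranded 36-bp intergenic genomic sequences on an Agilent 4 × 180k array, alongside negative controls, exposed for 1 h to GST-tagged P. falciparum DNA-binding domains expressed in E. coli. Bound protein was picked up with Alexa488 anti-GST antibody and scanned at 488 nm.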
For “GTATTGCATGAGGACACACACAAAAAAAATATAGAT [CACACA_site6500]”, the “gcPBM binding intensity (ln)” value was 8.28 ± 0.46. With “TATATATTTCATCCTTGTACACATTTGTGTTTACAT [XGTACX_site1132]” the “gcPBM binding intensity (ln)” value was 7.84 ± 0.37. In the case of “AATAAATAAATATATATATATATATATATATATATA [CACACA_negctrl_site365]”, the “gcPBM binding intensity (ln)” value is reported as 9.21 ± 0.49. For “ACAATTTACACTTAAACACACAAAAAAAAGTTATAT [CACACA_site7056]”, the “gcPBM binding intensity (ln)” value was 7.97 ± 0.65. In the case of “TATCAAAATTGTAATTGTACTTGTAAGTGGATATAT [XGTACX_site5949]”, the “gcPBM binding intensity (ln)” value is reported as 8.13 ± 0.16. In the case of “TAGTTTTTTATATATTGTACAAATAATATATGATAT [XGTACX_site4220]”, the “gcPBM binding intensity (ln)” value is reported as 7.94. With “AGTGATTATTAATAATGTACATATCTATAAATATAT [XGTACX_site4734]” the “gcPBM binding intensity (ln)” value was 7.75 ± 0.45. With “TTTTTTTTTTTTTTCTTACAATTTATTGAACAAATG [XGTACX_negctrl_site515]” the “gcPBM binding intensity (ln)” value was 7.93 ± 0.58. In the case of “TATATATTATAAAATTGTACATATATTAAATTTTTT [XGTACX_site5852]”, the “gcPBM binding intensity (ln)” value is reported as 7.45 ± 0.36. “CAAAACAAAACGTATGCACACAATTAAAATATTAAA [CACACA_site5815]” was tested, and the “gcPBM binding intensity (ln)” value was 8.49 ± 0.34. In the case of “AAATGTTGAGCAGTACAAAAAAAAAAAAAAAAAAAA [GTGCAC_negctrl_site518]”, the “gcPBM binding intensity (ln)” value is reported as 8.15 ± 0.74. For “AAGATACCAATGAAATGTACATATATATAAATATAA [XGTACX_site2135]”, the “gcPBM binding intensity (ln)” value was 7.75 ± 0.6. In the case of “CATTTATATAAAAGAACACACATATAAAATATTATT [CACACA_site3601]”, the “gcPBM binding intensity (ln)” value is reported as 7.66 ± 0.52. “TTTTTTTTTTAATTGGGTACATATATAATTTAAGAA [XGTACX_site2732]” was tested, and the “gcPBM binding intensity (ln)” value was 7.92 ± 0.55. In the case of “GGTGGGGAGGAGTAATGTACAAATTAACATATTATG [XGTACX_site6666]”, the “gcPBM binding intensity (ln)” value is reported as 9.38 ± 0.13. “TTCTTACATGAGTGTACACACTTTTTTTCAGAAAAT [CACACA_site4215]” was tested, and the “gcPBM binding intensity (ln)” value was 8.39 ± 0.67. “AATAGTCGGGTGCATACACACCTTAAATATAATATA [CACACA_site8271]” was tested, and the “gcPBM binding intensity (ln)” value was 10.3 ± 0.55. With “TTATAAAATATTTATGCATGTGAAGAATATTATAAA [TGCATGCA_site1047]” the “gcPBM binding intensity (ln)” value was 8.42 ± 0.34. In the case of GAAAAAAGTATCAAGGTGCGTATATACATCAAAATA, the “gcPBM binding intensity (ln)” value is reported as 9.64 ± 0.028. With “ATATCATTTTCCTGCACACATAAATTTATATAATAT [CACACA_site1048]” the “gcPBM binding intensity (ln)” value was 9.45 ± 0.38. With “ACACATAAATGAATAAATAAATAAATATAAATATAA [CACACA_negctrl_site1784]” the “gcPBM binding intensity (ln)” value was 7.46 ± 0.35. In the case of “AAAAGAACAATGAAGTGTACTAATAATTATTTATGT [XGTACX_site6649]”, the “gcPBM binding intensity (ln)” value is reported as 8.09 ± 0.45. For “TTTTATCATCTTTTTACATTATGTATAAATATTTTC [CACACA_negctrl_site206]”, the “gcPBM binding intensity (ln)” value was 7.95 ± 0.76. “AGCAAAACATAAAATAGTACACATTTAACAAAAAAA [XGTACX_site2921]” was tested, and the “gcPBM binding intensity (ln)” value was 7.97 ± 0.55. “ATATAATATATTTTTGAACACACAATATATATATAT [CACACA_site9368]” was tested, and the “gcPBM binding intensity (ln)” value was 9.14 ± 0.3. With “TTTTGTTGAAAAGTAAGATATTCCAACATGTTTTTA [CACACA_negctrl_site391]” the “gcPBM binding intensity (ln)” value was 7.38 ± 0.64. In the case of “TAACTAATATATAAAACACACATCATAAAAATATAA [CACACA_site768]”, the “gcPBM binding intensity (ln)” value is reported as 7.67 ± 0.61. With “ATATATGTGTATGTATGTACTTATATTTTTTTTTAT [XGTACX_site1733]” the “gcPBM binding intensity (ln)” value was 7.74 ± 0.17. With “TCCGTTATATATGTGTGTACATATAATATATCCTCA [XGTACX_site2588]” the “gcPBM binding intensity (ln)” value was 7.96 ± 0.47. In the case of “GCAAATCAATTTTTTTTTAAAACTCATTTTTTCGTT [CACACA_negctrl_site1136]”, the “gcPBM binding intensity (ln)” value is reported as 7.68 ± 0.78. For “AAAAATGAAAGTAAGACATGCATGGAATTTTTTTTA [TGCATGCA_site347]”, the “gcPBM binding intensity (ln)” value was 8.12 ± 0.88. With “TTTTTTTTTTATGAAAGTACATATGAAAAATACGAA [XGTACX_site3451]” the “gcPBM binding intensity (ln)” value was 8.05 ± 0.071. “ATTAAATAAAAAAACACACACATATATACCTATATA [CACACA_site5837]” was tested, and the “gcPBM binding intensity (ln)” value was 7.7 ± 0.49. “CAAAACATTTTATCTACACACATATATAAATAAATA [CACACA_site3220]” was tested, and the “gcPBM binding intensity (ln)” value was 7.61 ± 0.54. In the case of “AATAAAACATAATAATGTACTCAAAGGTTTAACTTG [XGTACX_site4711]”, the “gcPBM binding intensity (ln)” value is reported as 7.87 ± 0.35. With “AAAATAAAAGAATAAAAATATGAAACTTTTTTAAAA [GTGCAC_negctrl_site348]” the “gcPBM binding intensity (ln)” value was 7.15 ± 0.64. “AACGTGTGGAGAATTATAAATGAGTAAAAAATATAT [XGTACX_negctrl_site562]” was tested, and the “gcPBM binding intensity (ln)” value was 8.16 ± 0.83. “GGGGGGAGGGTGAATACACACGTAATAATCATAAAC [CACACA_site8502]” was tested, and the “gcPBM binding intensity (ln)” value was 10.3 ± 0.37. “TTTGAATAAAAACAAAAAATTAAATTAAATTAAATA [CACACA_negctrl_site312]” was tested, and the “gcPBM binding intensity (ln)” value was 7.21 ± 0.54. In the case of “TATTTATAATTATAATAATATATATATATATATATA [TGCATGCA_negctrl_site173]”, the “gcPBM binding intensity (ln)” value is reported as 9.21 ± 0.28. “ATTGTGTTAATAAAATGTACATTTTCTCTACATTAA [XGTACX_site2766]” was tested, and the “gcPBM binding intensity (ln)” value was 7.92 ± 0.66. In the case of “ATATATATATATGTATGTACGTATGTATTTACTGCT [XGTACX_site3839]”, the “gcPBM binding intensity (ln)” value is reported as 9.18 ± 0.16. “TCCAATATATTTATGAGTACTTATAAATTATACGTT [XGTACX_site742]” was tested, and the “gcPBM binding intensity (ln)” value was 8.09 ± 0.4. In the case of “TTCATACATATTTGAAGTACATTTAAAAATGTCCTT [XGTACX_site747]”, the “gcPBM binding intensity (ln)” value is reported as 7.65 ± 0.17.
